About 60 (0.1%) of roughly 46,000 compounds were called active. Another 3% or so got no clear call; they are omitted. Calls follow the shape of the dose curve; as a rule, active = well fitted inhibition curve with a large enough effect; inconclusive = small, poorly fitted or top-dose-only effect; inactive = no such curve, though single readings can be large or run the other way. The list shows a part of the results.
Assay: Primary qHTS assay for Inhibitors of ovarian cancer metastasis using an organotypic tumor microenvironment (TME) model. Also: nearly all actives have a fitted effect of over 65% in size.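 As to Potency: count of GFP cancer cells still attached after washing and fixation.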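 As to activity change, negative = inhibition: plate controls were DMSO wells for no effect and tomatine positive control wells for full effect.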
Conditions: SKOV3ip1-GFP adhesion/invasion on 3D omental model, fluorescence; series mostly up to 45.8 µM; activity change, negative = inhibition: at the top concentration
Summary of the method: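 qHTS, 4-pt dose (0.36-46 umol/L); SKOV3ip1-GFP, 1,200 cells/well, no FBS; primary omental fibroblast/mesothelial co-culture 48 h pre-grown; 2 h RT + 16 h 37 C; PBS wash, 4% PFA; GFP count 488/509 nm.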
Potency is read from the fitted curve at half-maximal effect.

Row | SMILES | activity change, negative = inhibition | outcome | Potency
1 | CCC(=O)N1CCc2cc(Br)cc(S(=O)(=O)CCC(=O)Nc3cccc(Cl)c3)c21 | inactive: 19.6% | – | –
2 | CCCn1c2ccc(F)cc2c2nnc(SCCN3CCCCC3)nc21 | inactive: -11.9% | – | –
3 | CCS(=O)(=O)N1CCCc2cc(C(=O)Nc3cccc(C(C)=O)c3)ccc21 | inactive: 0.532% | – | –
4 | COc1cc(NC(=O)c2cccc(Cl)c2Cl)ccc1NC(=O)c1cc2ccccc2o1 | inactive: 7.52% | – | –
5 | CCCSCCCNC(=O)c1ccc(C)c(NC(=O)c2nsc3ccccc23)c1 | inactive: 0.355% | – | –
6 | COc1cccc(Cn2nc(SC)c(S(=O)(=O)c3ccccc3)c2N(C(C)=O)C(C)=O)c1 | – | inactive | –
7 | Cc1cc2c(cc1NS(=O)(=O)c1ccc(Br)cc1)n(C)c(=O)c(=O)n2C | inactive: -5.29% | – | –
8 | Cn1nc(-c2ccccc2F)c2cc(C(=O)NCc3ccccc3Cl)sc21 | inactive: -4.08% | – | –
9 | COc1ccc(N2CCN(S(=O)(=O)c3ccc(F)c(C(=O)Nc4ccccc4Cl)c3)CC2)cc1 | inactive: -9.8% | – | –
10 | COc1cc2c(cc1OC)C(c1cccc(Cl)c1)CC(=O)N2 (configuration not stated) | inactive: -15.9% | – | –
11 | COc1ccc(OC)c(NC(=O)c2oc(=O)c3ccccc3c2-c2ccccc2)c1 | inactive: -8.26% | – | –
12 | COc1ccc(CC(=O)N2CCc3cc(OC)c(OC)cc3C2COc2ccc(F)cc2)cc1 (configuration not stated) | – | inactive | –
13 | CC(C)(C)OC(=O)N1CCC(c2c(C(=O)NCc3cccs3)cnn2-c2cccc(F)c2)CC1 | – | inactive | –
14 | COc1ccc(Cl)cc1NC(=O)N1CCN(S(=O)(=O)c2ccc3c(ccn3C)c2)CC1 | inactive: 14.4% | – | –
15 | CCc1ccc(OCCSc2nc3ccccc3n2CC(=O)N2CCCCC2)cc1 | inactive: -8.28% | – | –
16 | O=C(c1ccc(F)cc1)N1CCc2c([nH]c3ccccc23)C1c1ccc(Cl)cc1 (configuration not stated) | inactive: 2.72% | – | –
17 | CCOc1ccc2c(c1)c(=O)c(C(=O)c1ccc3c(c1)OCO3)cn2Cc1ccc(F)cc1 | inactive: -20.3% | – | –
18 | COc1cc(/C=C(\C#N)c2nc3ccc(C)cc3[nH]2)ccc1OCc1ccc(C)cc1 | inactive: 6.07% | – | –
19 | COc1cccc(OC)c1C(=O)NCCc1sc(-c2cccc(F)c2)nc1C | inactive: -0.329% | – | –
20 | COc1ccc(S(=O)(=O)N2CCC(Oc3ccc(-n4cnnn4)cc3)CC2)cc1 | inactive: -15.7% | – | –
21 | CCCCNC(=O)c1cccc(NC(=O)c2nsc3ccccc23)c1 | inactive: 15.9% | – | –
22 | Cc1nn(-c2nc(-c3ccccc3)cc(C(F)(F)F)n2)c(C)c1Cl | inactive: -12.7% | – | –
23 | CCc1nn(C(CC)C(=O)NCc2ccc(OC)c(OC)c2)c(=O)c2cc3oc(C)cc3n12 (configuration not stated) | inactive: -6.56% | – | –
24 | COc1ccccc1N1CCN(c2ncnc3c2c(-c2ccccc2)cn3-c2cccc(Cl)c2)CC1 | inactive: -5.11% | – | –

Row | SMILES | activity change, negative = inhibition | outcome | Potency
25 | Cc1ccc(OCCSc2nc(-c3ccccc3C)nc3cc(=O)[nH]n23)cc1Cl | inactive: -3.3% | – | –
26 | Cc1ccc(C)c(NC(=O)CSc2nccn2-c2cccc(C)c2C)c1 | inactive: 5.77% | – | –
27 | COc1ccc(C(=O)Nc2ccccc2-c2nc3ccccc3s2)cc1OC | – | inactive | –
28 | CCN(C(=O)c1cn(-c2cccc(OC)c2)c(=O)c2ccccc12)c1ccccc1C | inactive: -3.2% | – | –
29 | COc1cccc(CNC(=O)c2cnc3c(-c4ccc(F)cc4)c(C)nn3c2C)c1 | – | inactive | –
30 | CC(=O)Nc1ccc(NC(=O)c2nc(S(=O)(=O)Cc3ccc(F)cc3)ncc2Cl)cc1 | – | – | active: 3.16 µM
31 | CCc1ccc(C2C(C(=O)Nc3ccccc3OC)=C(C)Nc3c(C(=O)Nc4ccc(C)cc4)cnn32)cc1 (configuration not stated) | inactive: -20.5% | – | –
32 | O=C(NCCc1ccccc1)c1cc(Nc2ccccc2)nc2ccccc12 | inactive: -4.74% | – | –
33 | Cc1c(-c2cccc3c(CCCOc4cccc5ccccc45)c(C(=O)O)n(Cc4cccnc4)c23)c(COc2ccc(N3CCN([S+](=O)([O-])N(C)C)CC3)cc2)nn1C | inactive: -0.314% | – | –
34 | CCCC(=O)Nc1cccc(OCc2cc(=O)n3cccc(C)c3n2)c1 | inactive: 5.31% | – | –
35 | Cc1cc(=O)n2nc(N(C)CC(=O)NCc3ccccc3C)sc2n1 | – | inactive | –
36 | CCc1ccccc1Nc1nn2c(=O)c3ccc(C(=O)NCCC4=CCCCC4)cc3nc2s1 | – | inactive | –
37 | COCCCn1c(SCc2cccc(Cl)c2)nc2c(sc3ccccc32)c1=O | inactive: -17.7% | – | –
38 | CCOCCc1nn2c(=O)cc(COC(=O)c3ccccc3OC)nc2s1 | inactive: 6.61% | – | –
39 | CCOC(=O)C1CCCN(C(=O)c2ccc3c(c2)sc2nc(-c4cccc(OC)c4)cn23)C1 (configuration not stated) | inactive: -9.69% | – | –
40 | Cc1ccccc1-c1noc(CSc2nc3ccccc3[nH]2)n1 | – | inactive | –
41 | CCOc1ccc(Nc2nc(-c3cccc(Cl)c3)c3c(n2)-c2ccccc2OC3)cc1 | inactive: -10.1% | – | –
42 | COc1ccc(N(CC(=O)Nc2cccc(Cl)c2)S(=O)(=O)c2c(C)[nH]c(=O)[nH]c2=O)cc1 | inactive: -2.43% | – | –
43 | COc1ccc2c(c1)c1c(c(=O)n(Cc3ccccc3)c(=O)n1CC(=O)Nc1ccccc1OC)n2C | – | inactive | –
44 | CCn1c(C)c(C)c2cc(C(=O)NCC(C)c3ccccc3)ccc21 (configuration not stated) | inactive: 6.72% | – | –
45 | CCOCCc1nnc(NC(=O)C(=O)c2cc(C)n(-c3ccc(C)cc3C)c2C)s1 | inactive: -1.05% | – | –
46 | O=C(Nc1nc2c(F)cc(F)cc2s1)c1ccc(S(=O)(=O)N2CCc3ccccc32)cc1 | inactive: -5.73% | – | –
47 | O=C(c1ccc2c(Cl)c3c(nc2c1)CCCC3)N1CCN(c2ccc(Cl)cc2)CC1 | – | inactive | –

Source: PubChem BioAssay AID1963576 (National Center for Advancing Translational Sciences (NCATS), 2024)
